For some of these results: Most of the strong results are listed elsewhere, so they are rarer here than in the full data. Only a part is listed here, and it is no random draw.

Among the test systems are PHKG2; PIK3C2B; PIK3C2G; PIK3CA; PIK3CB; PIK3CD; PIK3CG; PIKFYVE; PIM1.
Common to all, as to details: concentration: 1 μM,replicates: in singlicate; n = 1
A further test concerns T1, PIK4CB.
T1 construct: gene PI4KB
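Further: KINOMEscan kinase panel screen.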

Regarding `COc1ccc(C2=C(Nc3cccc(Cl)c3)C(=O)NC2=O)cc1` [SB-326892], the “%Inh” value with PHKG2 was determined as 1%; with PIK3C2B, 21%; in the test on PIK3C2G, 100%; with PIK3CA it was 14%; with PIK3CB, 0%; in the test with PIK3CD, 100%. For the same molecule, the “%Inh” value with PIK3CG was determined as 21%; in the test on PIK4CB it was 0%; with PIKFYVE, 0%; in the test on PIM1 it was 0%.
`O=C1NC(=O)C(c2ccc(Cl)cc2)=C1Nc1cccc(O)c1` [SB-333613]: the “%Inh” value with PHKG2 was 13%; with PIK3C2B it was 4%; in the test with PIK3C2G, 24%; in the test with PIK3CA, 39%; with PIK3CB, 18%; in the test on PIK3CD, 57%. Further, the “%Inh” value is given as 20% in the test on PIK3CG, 39% with PIK4CB, 20% in the test with PIKFYVE and 49% in the test on PIM1.
Take `CS(=O)(=O)c1ccccc1-c1nc(-c2ccc(F)cc2)c(-c2ccncc2)[nH]1` [SB-213663]: the “%Inh” value in the test with PHKG2, in the test on PIK3C2B, with PIK3C2G, in the test with PIK3CA, in the test on PIK3CB and in the test with PIK3CD was 0% in each case. Besides, the “%Inh” value in the test on PIK3CG worked out at 28%; with PIK4CB it was 7%; with PIKFYVE it was 58%; with PIM1, 0%.
With `O=C1NC(=O)C(c2ccccc2Cl)=C1Nc1ccccc1` [SB-376715], the “%Inh” value was found to be 3% with PHKG2; 1% in the test with PIK3C2B; 0% in the test on PIK3C2G; 0% in the test on PIK3CA; 24% in the test with PIK3CB; 0% with PIK3CD. Also, the “%Inh” value worked out at 0% in the test on PIK3CG, 0% in the test on PIK4CB, 11% in the test on PIKFYVE and 15% in the test with PIM1.
In the case of `O=C1NC(=O)C(c2ccccc2)=C1Nc1ccc(Cl)c(C(=O)O)c1` [SB-390532], the “%Inh” value with PHKG2 is given as 0%; in the test with PIK3C2B, 0%; in the test on PIK3C2G, 0%; in the test on PIK3CA, 0%; in the test on PIK3CB it was 0%; with PIK3CD, 25%. The “%Inh” value is on record as 0% in the test with PIK3CG, 8% in the test on PIK4CB, 29% with PIKFYVE and 11% in the test with PIM1.
With `CSc1ccc(NC2=C(c3cccc(Cl)c3)C(=O)NC2=O)cc1` [SB-341528], the “%Inh” value is reported as 0% with PHKG2; 0% with PIK3C2B; 13% in the test with PIK3C2G; 0% in the test on PIK3CA; 0% with PIK3CB; 0% in the test with PIK3CD. Besides, the “%Inh” value with PIK3CG was found to be 0%; in the test with PIK4CB, 6%; in the test with PIKFYVE it was 4%; in the test on PIM1, 3%.
For `O=C1NC(=O)C(c2ccc(Cl)cc2)=C1Nc1cccc(C(=O)O)c1` [SB-360737], the “%Inh” value with PHKG2 was determined as 0%; with PIK3C2B it was 9%; in the test with PIK3C2G, 0%; in the test with PIK3CA it was 5%; in the test with PIK3CB it was 0%; with PIK3CD, 0%. Moreover, the “%Inh” value with PIK3CG worked out at 2%; with PIK4CB, 14%; with PIKFYVE, 0%; with PIM1, 0%.
For `COc1cccc(C2=C(Nc3ccc(SC)cc3)C(=O)NC2=O)c1` [SB-331032], the “%Inh” value in the test on PHKG2 amounted to 26%; with PIK3C2B, 0%; with PIK3C2G it was 0%; in the test on PIK3CA, 9%; with PIK3CB, 8%; in the test with PIK3CD, 0%. In addition, the “%Inh” value in the test with PIK3CG turned out to be 0%; in the test on PIK4CB, 0%; with PIKFYVE it was 1%; in the test on PIM1, 12%.
Take `O=C1NC(=O)C(c2ccccc2)=C1Nc1cc(Cl)c(O)c(Cl)c1` [SB-390530]: the “%Inh” value in the test with PHKG2 is 4%; in the test with PIK3C2B it was 0%; in the test on PIK3C2G, 8%; with PIK3CA it was 0%; in the test with PIK3CB, 45%; in the test with PIK3CD, 0%. The “%Inh” value in the test with PIK3CG was found to be 17%; with PIK4CB it was 32%; in the test with PIKFYVE, 7%; in the test with PIM1, 0%.
`O=C1NC(=O)C(c2ccccc2Cl)=C1Nc1cccc(C(=O)O)c1` [SB-390526]: the “%Inh” value worked out at 10% in the test on PHKG2; 0% in the test on PIK3C2B; 3% with PIK3C2G; 0% with PIK3CA; 2% in the test with PIK3CB; 42% with PIK3CD. Also, the “%Inh” value in the test on PIK3CG is recorded as 3%; in the test on PIK4CB it was 0%; with PIKFYVE, 29%; with PIM1, 1%.
For the molecule `O=C(O)c1ccc(-c2nc(-c3ccc(F)cc3)c(-c3ccncc3)[nH]2)cc1` [SB-202620], the “%Inh” value with PHKG2 stood at 0%; with PIK3C2B, 0%; in the test with PIK3C2G, 0%; in the test with PIK3CA, 18%; in the test on PIK3CB, 4%; in the test with PIK3CD, 0%. Besides, the “%Inh” value with PIK3CG worked out at 0%; with PIK4CB, 0%; in the test on PIKFYVE it was 18%; with PIM1, 0%.
`Cc1cc(C)cc(Oc2nccc(-c3c(-c4ccc(F)cc4)ncn3C3CCNCC3)n2)c1.O=C(O)C(F)(F)F.O=C(O)C(F)(F)F.O=C(O)C(F)(F)F` [SB-284851]: the “%Inh” value in the test with PHKG2 was found to be 15%; in the test with PIK3C2B, 0%; in the test with PIK3C2G it was 0%; in the test on PIK3CA it was 0%; in the test on PIK3CB, 0%; in the test on PIK3CD, 0%. The “%Inh” value worked out at 0% in the test on PIK3CG, 0% with PIK4CB, 17% in the test with PIKFYVE and 90.6% in the test with PIM1.
For the molecule `Cc1ccc(C)c(Oc2nccc(-c3c(-c4ccc(F)cc4)ncn3C3CCNCC3)n2)c1.O=C(O)C(F)(F)F.O=C(O)C(F)(F)F.O=C(O)C(F)(F)F` [SB-284852], the “%Inh” value with PHKG2, with PIK3C2B, in the test on PIK3C2G, in the test with PIK3CA, with PIK3CB and with PIK3CD was 0% throughout. Also, the “%Inh” value with PIK3CG stood at 0%; in the test on PIK4CB it was 0%; in the test with PIKFYVE it was 2%; in the test with PIM1 it was 0%.
Turning to `O=C1NC(=O)c2c1c(-c1ccccc1)cc1[nH]c3ccc(O)cc3c21`, the “%Inh” value in the test on PHKG2 worked out at 9%; in the test with PIK3C2B it was 14%; in the test on PIK3C2G it was 34%; in the test with PIK3CA, 9%; in the test with PIK3CB it was 1%; in the test with PIK3CD, 7%. Also, the “%Inh” value in the test on PIK3CG is on record as 42%; with PIK4CB, 23%; in the test with PIKFYVE it was 34%; with PIM1 it was 55%.
For `O=C1NC(=O)C(c2ccc(Cl)cc2)=C1Nc1ccc(O)c(Cl)c1` [SB-405367], the “%Inh” value was found to be 0% in the test on PHKG2; 5% in the test with PIK3C2B; 6% in the test with PIK3C2G; 0% in the test with PIK3CA; 0% with PIK3CB; 0% with PIK3CD. Moreover, the “%Inh” value with PIK3CG stood at 35%; with PIK4CB, 17%; in the test on PIKFYVE, 3%; in the test on PIM1 it was 0%.
Consider `O=C1NC(=O)C(c2ccc(Cl)cc2)=C1Nc1ccccc1` [SB-317661], for which the “%Inh” value is 0% in the test with PHKG2; 7% in the test with PIK3C2B; 0% with PIK3C2G; 14% in the test with PIK3CA; 0% with PIK3CB; 0% in the test on PIK3CD. The “%Inh” value with PIK3CG is reported as 0%; in the test with PIK4CB, 0%; in the test on PIKFYVE it was 7%; with PIM1 it was 5%.

For the origin of these results see publication PMC5540273 (PLoS ONE, 2017).
